Reference: article PMC2913105 (British Journal of Pharmacology, 2010)

Molecular target: P2Y1 receptors (Rattus norvegicus, UniProt P49651)
Conditions: Schild analysis, 0-300 nM antagonist

- pKD (antagonism of Ca2+ signals evoked by 2-MeSADP) (agonist 2-MeSADP): 8.64 ± 0.26
- pKD (antagonism of Ca2+ signals evoked by MRS2365) (agonist MRS2365): 8.16 ± 0.26
SMILES: CNc1nc(Cl)nc2c1ncn2C1CC(OP(=O)(O)O)C2(COP(=O)(O)O)CC12 (centres unmarked) [MRS2279, 2-chloro-N^6-methyl-(N)-methanocarba-2′-deoxyadenosione-3′,5′-bisphosphate]
